Results on 24 compounds are retold here after paper PMC4336329 (PLoS ONE, 2015).

About 2,200 (0.71%) of roughly 310,000 compounds showed an effect of 50% or more. The effect is printed as a negative number. The list shows a part of the results.

human ether-à-go-go-related gene (hERG) potassium channel, sequence (Q12809 whole entry, looked up): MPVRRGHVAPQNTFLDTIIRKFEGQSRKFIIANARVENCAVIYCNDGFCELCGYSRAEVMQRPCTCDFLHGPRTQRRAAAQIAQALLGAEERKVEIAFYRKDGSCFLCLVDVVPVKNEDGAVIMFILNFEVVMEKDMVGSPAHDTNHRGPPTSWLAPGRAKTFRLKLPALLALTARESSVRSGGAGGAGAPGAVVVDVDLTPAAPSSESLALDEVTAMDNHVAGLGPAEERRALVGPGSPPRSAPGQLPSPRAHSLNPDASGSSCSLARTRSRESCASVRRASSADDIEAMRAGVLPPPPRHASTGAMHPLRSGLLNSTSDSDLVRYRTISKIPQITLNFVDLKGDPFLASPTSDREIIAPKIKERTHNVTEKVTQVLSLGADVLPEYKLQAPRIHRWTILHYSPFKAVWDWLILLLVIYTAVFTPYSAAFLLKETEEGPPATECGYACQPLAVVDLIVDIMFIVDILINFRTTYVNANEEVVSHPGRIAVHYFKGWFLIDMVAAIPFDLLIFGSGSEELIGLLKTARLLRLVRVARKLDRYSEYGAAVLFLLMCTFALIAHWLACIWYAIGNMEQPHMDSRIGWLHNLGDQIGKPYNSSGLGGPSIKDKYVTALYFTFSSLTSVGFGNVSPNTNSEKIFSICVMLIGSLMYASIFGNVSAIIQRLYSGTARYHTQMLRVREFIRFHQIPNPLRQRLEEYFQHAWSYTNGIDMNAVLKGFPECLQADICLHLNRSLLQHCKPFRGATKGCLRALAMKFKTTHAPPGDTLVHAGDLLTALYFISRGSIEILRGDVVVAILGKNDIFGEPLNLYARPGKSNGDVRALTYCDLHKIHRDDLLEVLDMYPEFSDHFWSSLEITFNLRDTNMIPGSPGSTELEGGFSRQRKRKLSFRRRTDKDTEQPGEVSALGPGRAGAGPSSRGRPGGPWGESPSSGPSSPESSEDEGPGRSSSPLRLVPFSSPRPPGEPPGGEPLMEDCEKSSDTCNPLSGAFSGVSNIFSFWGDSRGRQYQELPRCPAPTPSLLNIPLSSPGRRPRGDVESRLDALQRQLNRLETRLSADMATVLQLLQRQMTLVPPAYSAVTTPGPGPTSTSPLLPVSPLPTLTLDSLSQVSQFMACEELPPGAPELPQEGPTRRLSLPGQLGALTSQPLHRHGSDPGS

This test has as its target human ether-à-go-go-related gene (hERG) potassium channel (human, UniProt Q12809). Description: primary screen, population patch clamp on CHO cells stably expressing hERG.
On to `CN(/N=C/c1ccc(Cl)cc1Cl)c1ncc(Cl)cc1C(F)(F)F`, for which the “hERG current change (%, negative = inhibition) at 1uM” value was found to be 11.2%. On to `COC(=O)CN1C(=O)COc2ccc(Cl)cc21`, for which the “hERG current change (%, negative = inhibition) at 1uM” value is 12.7%. As to `CCN1CCN(c2ncc3c(n2)CC(c2cc(OC)c(OC)c(OC)c2)CC3=O)CC1` (stereo not drawn), the “hERG current change (%, negative = inhibition) at 1uM” value was determined as 11.7%.

Consider `CN(C)c1ccc(/C=N/NC(=O)c2ccc(Cl)cc2)cc1`, for which the “hERG current change (%, negative = inhibition) at 1uM” value is 4.15%.

For `CCc1ccc(N2C(=O)CC(c3ccc(F)cc3)C3=C2COC3=O)cc1` (stereo not drawn), the “hERG current change (%, negative = inhibition) at 1uM” value is -13.5%. For the compound `CSc1ccccc1NC(=O)CN(C)S(=O)(=O)c1ccc(F)cc1`, the “hERG current change (%, negative = inhibition) at 1uM” value is listed as -10.3%. For `COc1cc(OC)cc(C(=O)Nc2ccc(Nc3ccccc3)cc2)c1`, the “hERG current change (%, negative = inhibition) at 1uM” value was 6.05%. For `CC(C)(C)NC(=O)C(OC(=O)c1ccco1)c1ccc(Cl)cc1` (stereo not drawn), the “hERG current change (%, negative = inhibition) at 1uM” value was 12.2%. Turning to `Cc1ccc(C(=O)NC2CCS(=O)(=O)C2)cc1S(=O)(=O)N1CCCCCC1` (stereo not drawn), the “hERG current change (%, negative = inhibition) at 1uM” value is on record as -0.538%. In the case of `Oc1[nH]c2ccccc2c1N=Nc1nc2ccccc2s1` it was -3.26%. In the case of `Cc1ccc(NC(=O)CCS(=O)(=O)c2cc3[nH]c(=O)c(=O)[nH]c3cc2C)cc1`, the “hERG current change (%, negative = inhibition) at 1uM” value is given as 16.9%.

As to `COC(=O)c1ccc2c(=O)n(CCCCCC(=O)N3CCN(c4ccccc4)CC3)c(=O)[nH]c2c1`, the “hERG current change (%, negative = inhibition) at 1uM” value was 10.4%. `COc1ccc(NC(=O)COc2nsnc2N2CCCCC2)cc1`: the “hERG current change (%, negative = inhibition) at 1uM” value stood at 3.6%.

`Cc1ccc(C(=O)Cn2nc(C)c([N+](=O)[O-])c2C)c(C)c1`: the “hERG current change (%, negative = inhibition) at 1uM” value came out at 5.7%.

As to `CCOc1ccc(NC(=O)CSc2nnc(-c3ccccn3)n2N)cc1`, the “hERG current change (%, negative = inhibition) at 1uM” value was found to be 8.79%.

For `O=C([O-])/C=C\C(=O)[O-].c1ccc2nc(N3CCNCC3)ccc2c1`, the “hERG current change (%, negative = inhibition) at 1uM” value amounted to 16.2%. Turning to `CC1(C)CC(=NOC(=O)c2ccccc2)CC(C)(C)N1`, the “hERG current change (%, negative = inhibition) at 1uM” value is -3.93%. In the case of `Cl.Cn1nnnc1SCCNCc1ccccc1OCc1ccc(F)cc1`, the “hERG current change (%, negative = inhibition) at 1uM” value is reported as -5.7%. For `Cc1ccccc1N1CCN(c2ccc(NC(=O)C3CCCCC3C(=O)O)cc2)CC1` (stereo not drawn), the “hERG current change (%, negative = inhibition) at 1uM” value came to 1.66%. Turning to `Cc1cc(C)n2nc(CNS(=O)(=O)c3ccc(C)c(C)c3)nc2n1`, the “hERG current change (%, negative = inhibition) at 1uM” value was determined as 13.9%.

Take `CCn1c(N2CCN(S(=O)(=O)c3ccc(Cl)cc3)CC2)nc2ccccc21`: the “hERG current change (%, negative = inhibition) at 1uM” value is listed as -12.7%. As to `CCCC1=Nc2cc(C(=O)NCCN3CCOCC3)ccc2Sc2ccccc21`, the “hERG current change (%, negative = inhibition) at 1uM” value worked out at 9.66%.

As to `Cc1nn(-c2ccc(C(F)(F)F)cn2)c(C)c1Oc1ccccc1O`, the “hERG current change (%, negative = inhibition) at 1uM” value is reported as 19.9%.

As for `CSCC[C@H](NC(=O)[C@@H]1CSC2c3ccccc3C(=O)N21)C(=O)NCc1ccco1` (stereo partly drawn), the “hERG current change (%, negative = inhibition) at 1uM” value came out at 9.46%.
